{"source": "paper PMC4336329", "about": "(PLoS ONE, 2015)", "note": "Screen size: about 310,000 compounds; about 14,000 (4.5%) showed an effect of 50% or more. Effects have a minus sign here. This is one part of the list.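 Note: peak tail current of the secondary pulse compared with the same well before compound.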"}
{"target": "human ether-à-go-go-related gene (hERG) potassium channel (human, UniProt Q12809)", "sequence (Q12809 whole entry, looked up)": "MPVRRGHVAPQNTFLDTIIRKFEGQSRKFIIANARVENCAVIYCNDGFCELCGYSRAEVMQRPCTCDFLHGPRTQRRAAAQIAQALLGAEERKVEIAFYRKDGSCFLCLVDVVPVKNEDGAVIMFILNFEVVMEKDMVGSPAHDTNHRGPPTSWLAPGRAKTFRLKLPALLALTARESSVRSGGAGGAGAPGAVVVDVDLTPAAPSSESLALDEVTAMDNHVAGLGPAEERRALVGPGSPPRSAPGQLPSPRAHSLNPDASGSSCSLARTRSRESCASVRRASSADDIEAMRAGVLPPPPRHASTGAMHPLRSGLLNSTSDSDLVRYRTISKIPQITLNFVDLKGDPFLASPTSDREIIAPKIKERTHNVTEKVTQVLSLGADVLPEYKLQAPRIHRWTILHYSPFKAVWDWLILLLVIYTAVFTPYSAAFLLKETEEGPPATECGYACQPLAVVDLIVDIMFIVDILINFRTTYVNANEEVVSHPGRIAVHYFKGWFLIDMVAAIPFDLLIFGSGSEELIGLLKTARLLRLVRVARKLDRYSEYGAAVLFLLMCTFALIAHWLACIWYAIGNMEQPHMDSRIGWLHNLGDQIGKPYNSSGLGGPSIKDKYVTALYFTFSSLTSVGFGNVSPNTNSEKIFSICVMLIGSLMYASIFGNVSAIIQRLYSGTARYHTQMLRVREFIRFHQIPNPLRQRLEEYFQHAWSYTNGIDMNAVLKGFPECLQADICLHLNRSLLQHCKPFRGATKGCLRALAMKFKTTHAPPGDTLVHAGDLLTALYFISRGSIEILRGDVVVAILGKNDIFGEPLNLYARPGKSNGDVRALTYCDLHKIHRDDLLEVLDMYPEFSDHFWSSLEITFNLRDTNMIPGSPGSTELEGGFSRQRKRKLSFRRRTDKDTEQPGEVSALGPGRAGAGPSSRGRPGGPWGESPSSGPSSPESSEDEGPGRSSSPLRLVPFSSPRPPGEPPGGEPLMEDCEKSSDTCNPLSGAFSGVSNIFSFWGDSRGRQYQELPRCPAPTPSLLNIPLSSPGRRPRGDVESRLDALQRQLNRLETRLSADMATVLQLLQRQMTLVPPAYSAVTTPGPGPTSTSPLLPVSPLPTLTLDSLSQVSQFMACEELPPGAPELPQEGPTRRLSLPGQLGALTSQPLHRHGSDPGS", "experiment": "primary screen, population patch clamp on CHO cells stably expressing hERG", "units": {"hERG current change (%, negative = inhibition) at 10uM": "%"}}
{"smiles": "COc1ccc(CNC(=S)NCc2ccc(OC(C)C)cc2)cc1", "hERG current change (%, negative = inhibition) at 10uM": -3.86}
{"smiles": "Cc1sc2ncnc(NCC(c3ccccc3)N(C)C)c2c1C", "note": "(stereo not shown)", "hERG current change (%, negative = inhibition) at 10uM": -40.1}
{"smiles": "Cc1ccc(N2CC(O)(c3cccs3)[N+]3=C2CCCC3)cc1.[Br-]", "note": "(stereo not shown)", "hERG current change (%, negative = inhibition) at 10uM": -32.3}
{"smiles": "C[C@H](NC(=O)C(c1ccccc1)c1ccccc1)c1ccccc1", "hERG current change (%, negative = inhibition) at 10uM": 6.04}
{"smiles": "Cc1ccc(/C=N/NC(=O)c2ccc3ccccc3c2)s1", "hERG current change (%, negative = inhibition) at 10uM": 11.3}
{"smiles": "O=C(c1ccco1)n1c(=S)nc2ccccn21", "hERG current change (%, negative = inhibition) at 10uM": 16.7}
{"smiles": "Nc1nc(NCc2ccccc2)nc(NCCO)c1[N+](=O)[O-]", "hERG current change (%, negative = inhibition) at 10uM": -3.94}
{"smiles": "Cl.N=C(N)N1CCc2ccccc21", "hERG current change (%, negative = inhibition) at 10uM": 5.99}
{"smiles": "Cc1ccsc1-c1nc(C(N)=O)c2[nH]c(=O)n(-c3ccc(Cl)cc3)c2n1", "hERG current change (%, negative = inhibition) at 10uM": 1.51}
{"smiles": "CCN(CC)C1CCS(=O)(=O)C1.Cl", "note": "(stereo not shown)", "hERG current change (%, negative = inhibition) at 10uM": 16.1}
{"smiles": "COCCNC(=O)Cn1nc(C(F)(F)F)c(Cl)c1C", "hERG current change (%, negative = inhibition) at 10uM": -3.48}
{"smiles": "CN(CC(=O)Nc1ccc(Cl)cc1)C(=O)c1cccc(S(=O)(=O)NCc2ccccc2)c1", "hERG current change (%, negative = inhibition) at 10uM": 16.3}
{"smiles": "COCCNS(=O)(=O)c1ccc2c3c(cccc13)C(=O)N2C", "hERG current change (%, negative = inhibition) at 10uM": 20.2}
{"smiles": "COc1ccccc1N1CCN(C(=O)CN2C(=O)c3cccc4cccc(c34)C2=O)CC1", "hERG current change (%, negative = inhibition) at 10uM": 16.9}
{"smiles": "CC(C)=C1C2CCC1C1C(=O)N(c3nc(-c4ccccc4)c(C)s3)C(=O)C21", "note": "(stereo not shown)", "hERG current change (%, negative = inhibition) at 10uM": -2.93}
{"smiles": "CCn1ccnc1CN(C)Cc1cn(-c2ccccc2)nc1-c1ccc(OC)cc1F", "hERG current change (%, negative = inhibition) at 10uM": -44.9}
{"smiles": "CCCOc1ccc(-c2csc(NC(=O)CN3C(=O)CCC3=O)n2)cc1", "hERG current change (%, negative = inhibition) at 10uM": 7.43}
{"smiles": "C=CC(=O)NCCCc1cc(C(C)(C)C)c(O)c(C(C)(C)C)c1", "hERG current change (%, negative = inhibition) at 10uM": -1.74}
{"smiles": "CN(C)C(=O)c1cc(F)ccc1Sc1cc(Cl)ccc1Cl", "hERG current change (%, negative = inhibition) at 10uM": -2.59}
{"smiles": "O=C(c1ccc(CNS(=O)(=O)c2ccc(Br)cc2)cc1)N1CCCC1", "hERG current change (%, negative = inhibition) at 10uM": -4.71}
{"smiles": "O=C1Nc2cc(C(=O)N3CCN(Cc4ccccc4)CC3)ccc2SC1N1CCOCC1", "note": "(stereo not shown)", "hERG current change (%, negative = inhibition) at 10uM": -3.14}
{"smiles": "N=C1S/C(=C\\c2ccco2)C(=O)N1c1ccc2c(c1)OCO2", "hERG current change (%, negative = inhibition) at 10uM": 14.7}
{"smiles": "c1ccc2nc(SCc3cn4ccccc4n3)cnc2c1", "hERG current change (%, negative = inhibition) at 10uM": -17}
{"smiles": "CN(C)S(=O)(=O)Oc1cccc(C(=O)Nc2ccc(Cl)cc2)c1", "hERG current change (%, negative = inhibition) at 10uM": -25.9}
{"smiles": "O=C(NN1C(=O)c2ccccc2NC1c1ccc([N+](=O)[O-])o1)c1ccc(Br)cc1", "note": "(stereo not shown)", "hERG current change (%, negative = inhibition) at 10uM": -72.7}
{"smiles": "CC1=NN(c2ccc(C)cc2)C(=O)/C1=C\\c1ccc(Br)s1", "hERG current change (%, negative = inhibition) at 10uM": 3.24}
{"smiles": "Cc1cccn2c(CNCCCn3ncc4ccccc43)c(C(=O)N3CCCCC3)nc12", "hERG current change (%, negative = inhibition) at 10uM": -18.4}
{"smiles": "COc1ccc(N2C(=O)CSC2c2ccc([N+](=O)[O-])cc2)cc1", "note": "(stereo not shown)", "hERG current change (%, negative = inhibition) at 10uM": -37.3}
{"smiles": "NC(=O)C1CCN(CC(=O)Nc2ccc(S(=O)(=O)N3CCOCC3)cc2)CC1", "hERG current change (%, negative = inhibition) at 10uM": 19}
{"smiles": "Cc1cc(N2CCC(C)CC2)nc(NCc2ccccc2)n1", "hERG current change (%, negative = inhibition) at 10uM": -43.3}
{"smiles": "CCCn1c(=O)n(C)c(=O)c2c(SCC(=O)NCC(c3ccccc3)N(C)C)nc(CC(C)C)nc21", "note": "(stereo not shown)", "hERG current change (%, negative = inhibition) at 10uM": -66.1}
{"smiles": "C/C(=N/O)c1ccc(N2C(=O)C3C4C=CC(C3C2=O)C2C3C(=O)N(c5ccc(/C(C)=N/O)cc5)C(=O)C3C42)cc1", "note": "(stereo not shown)", "hERG current change (%, negative = inhibition) at 10uM": -9.19}
{"smiles": "Cc1cccc(Oc2nc(-c3ccccc3)cc(C)c2S(C)(=O)=O)c1C", "hERG current change (%, negative = inhibition) at 10uM": -0.844}
{"smiles": "Cc1ccc(C2(C(F)(F)F)N=C3Sc4cc(C)cc(C)c4N3C(=O)N2)cc1", "note": "(stereo not shown)", "hERG current change (%, negative = inhibition) at 10uM": -4.05}
{"smiles": "NNC(=S)NCc1ccc2c(c1)OCO2", "hERG current change (%, negative = inhibition) at 10uM": 10.9}
{"smiles": "CC(N1CCOC1=O)S(=O)(=O)c1ccccc1", "note": "(stereo not shown)", "hERG current change (%, negative = inhibition) at 10uM": 1.31}
{"smiles": "Cc1cccc(NC(=O)CCC(=O)N/N=C/c2ccc(O)cc2O)c1", "hERG current change (%, negative = inhibition) at 10uM": -0.696}
{"smiles": "CCn1cc(C(=O)N2CCN(c3ccc([N+](=O)[O-])cc3)CC2)c(=O)c2ccc(C)nc21", "hERG current change (%, negative = inhibition) at 10uM": -70.9}
{"smiles": "O=C(NCCS(=O)(=O)NC1CCCCC1)c1ccc2c(c1)OCO2", "hERG current change (%, negative = inhibition) at 10uM": 6.14}
{"smiles": "CCCCP(=O)(CCCC)c1ccccc1C(=O)O", "hERG current change (%, negative = inhibition) at 10uM": 4.39}
{"smiles": "Cc1c(-c2cccc(Cl)c2)nc2ccccc2c1C(=O)OCC(=O)N(C)C1CCS(=O)(=O)C1", "note": "(stereo not shown)", "hERG current change (%, negative = inhibition) at 10uM": -34.4}
{"smiles": "O=C(CSc1nccc(=O)[nH]1)NCc1ccco1", "hERG current change (%, negative = inhibition) at 10uM": 15.7}
{"smiles": "COc1ccc(CNc2n[nH]c(NCc3ccc(OC)c(OC)c3)n2)cc1OC", "hERG current change (%, negative = inhibition) at 10uM": 1.3}
{"smiles": "O=C(O)c1ccccc1S(=O)(=O)CC(=O)N1CCCCC1", "hERG current change (%, negative = inhibition) at 10uM": 15.4}
{"smiles": "C=CCNC(=O)c1sc(=S)n(-c2ccc(C(=O)OCC)cc2)c1N", "hERG current change (%, negative = inhibition) at 10uM": -4.18}
{"smiles": "COc1ccc(Cn2c(O)c(C=Nc3ccccc3C(=O)O)c3ccccc3c2=O)cc1", "hERG current change (%, negative = inhibition) at 10uM": 11.3}
{"smiles": "O=C1CN(c2nc(-c3ccccc3)c3cc(Cl)ccc3n2)c2ccccc2N1", "hERG current change (%, negative = inhibition) at 10uM": 13.1}
{"smiles": "CCN(c1ccccc1)S(=O)(=O)c1ccc2[nH]cc(C(=O)NCCOC)c(=O)c2c1", "hERG current change (%, negative = inhibition) at 10uM": 18.5}
{"smiles": "CCOC(=O)c1c(S(=O)(=O)N2c3ccccc3CC2C)c(C)n(C)c1C", "note": "(stereo not shown)", "hERG current change (%, negative = inhibition) at 10uM": 13.1}
{"smiles": "CCn1c(=O)cc(OCC(=O)NCc2ccc(C)o2)c2ccccc21", "hERG current change (%, negative = inhibition) at 10uM": -14.7}
{"smiles": "O=C(CN1CCOCC1)N1c2ccccc2Sc2ccccc21", "hERG current change (%, negative = inhibition) at 10uM": 13.8}
{"smiles": "O=C(N[C@H](C(=O)O)c1ccccc1)C1CCC(Cn2nnc3ccccc3c2=O)CC1", "note": "(stereo partly shown)", "hERG current change (%, negative = inhibition) at 10uM": -10}
{"smiles": "Cc1ccc(/C=C/C(=O)NC(C)c2ccccc2)cc1", "note": "(stereo not shown)", "hERG current change (%, negative = inhibition) at 10uM": -4.84}
{"smiles": "CC(=O)Nc1ccc(NC(=O)COC(=O)c2c(C)nn(-c3ccccc3)c2C)cc1", "hERG current change (%, negative = inhibition) at 10uM": -4.07}
{"smiles": "COc1cccc(CN2C(=O)CN(C3CCCCC3)C(=O)C2c2ccc(F)cc2)c1", "note": "(stereo not shown)", "hERG current change (%, negative = inhibition) at 10uM": -35.6}
